The other results are listed elsewhere or left out.
test system: T1, C. trachomatis L2/434/Bu expressing GFP (CTL2-GFP); parameters: species or system HeLa; C. trachomatis total inclusion area by high-content imaging, normalised to DMSO; conditions: total inclusion area; 28.5 h, 10 µM; inhibitor
T1 construct: L2/434/Bu GFP intracellular growth in HeLa cells
Method in brief: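 Host cell viability was gauged from Hoechst-stained nuclei counts, while chlamydial growth was taken from total inclusion area and inclusion number per well. Cells were fixed and imaged by high-content microscopy once bulk GFP and resorufin fluorescence had been measured.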

Structure (SMILES)	% of control remaining
NNC(=O)/C(=C\c1cccc([N+](=O)[O-])c1)NC(=O)c1ccc(Br)o1 [CBK262573]	109.679
C[n+]1cn(/N=C/c2ccco2)cn1 [CBK028562I]	127.765
O=C(c1cccc(F)c1)N1CCCC(c2cc3cccnc3[nH]2)C1 (centres unmarked) [CBK284939]	74.3075
CC(C)c1nc(NCCc2nnc3n2CCCC3)nc(N(C)C)n1 [CBK306426]	73.044
CCN(CC)CCCNc1c([N+](=O)[O-])c(=O)n(C)c2ccccc12 [CBK264893]	86.6252
Clc1cccc(C2N(Cc3ccccc3)CCN2Cc2ccccc2)c1 [CBK261222]	93.3215
COc1cc2c(cc1OC)CN(Cc1ccc(OCc3ccccc3)c(OC)c1)CC2 [CBK033974]	104.77
O=C(CN(C(=O)CNC(=O)c1cccs1)c1cccc(C(F)(F)F)c1)NC1CCCCC1 [CBK084697]	107.364
CCOc1cc(/C=C(/C#N)c2nc3ccccc3[nH]2)ccc1OCc1ccc(C(=O)O)o1 [CBK267923]	117.612
CCOc1ccc(N(Cc2ccc(C(=O)O)cc2)S(C)(=O)=O)cc1 [CBK287231]	80.6427
CCNC(=O)N[C@@H]1C=C[C@@H](c2c(C)nn(CCC#N)c2C)C1 [CBK289171]	84.622
O=C(NCCc1ccc(Cl)cc1)C1(Cc2cccc(-c3cccnc3)c2)CCOCC1 [CBK285606]	81.2025
Cc1occc1C(=O)Nc1nc(CC(=O)N(C)Cc2ccsc2)cs1 [CBK305631]	78.3476
COC(=O)CNC(=O)C1CC(=O)N(c2ccccc2Br)C1 (centres unmarked) [CBK296672]	81.242
O=C(c1ccc(F)cc1)N1CCC(Oc2nccnc2OCc2ccc(Cl)c(Cl)c2)CC1 [CBK160721]	92.9638
CCn1cc(S(=O)(=O)Nc2ccc3c(ccn3C)c2)c(C)n1 [CBK282818]	56.3835
Cc1cc(NS(=O)(=O)c2c(C)nn(C)c2Cl)n(C)n1 [CBK067245]	74.5155
Cn1ccc(CN2CCOC(c3nc(C(C)(C)C)n[nH]3)C2)cc1=O (centres unmarked) [CBK304495]	58.2166
Cn1c(=O)c2c(nc(CN3CCN(C(=O)c4ccco4)CC3)n2Cc2ccccc2)n(C)c1=O [CBK269437]	67.0388
CC(C)S(=O)(=O)N1C[C@@H](c2ccccc2)[C@H]2[C@H]1CCCCCN2C [CBK283083]	92.821
O=C(C1CN(S(=O)(=O)c2ccccc2)CCN1S(=O)(=O)c1ccccc1)N1CCCCC1 (centres unmarked) [CBK262686]	103.954
CC(=O)c1sc(NC(=O)Cc2ccc(C)cc2)nc1C [CBK287760]	72.174
O=C(Cc1ccc(F)cc1)N1CCCC(c2nccnc2-c2cccc(C(F)(F)F)c2)C1 (centres unmarked) [CBK286210]	126.711
CCc1nc2ccc(C(=O)N(C)CCN(C)C)cn2c1N(C)C(=O)C1CCCCC1 [CBK145771]	98.7516
O=C(NCc1c(Cl)cccc1Cl)N1CCN(c2ccccc2)CC1 [CBK155194]	99.8036
C(=C\c1ccccc1)/CN1CCN(C2CCN(CCc3ccccc3)CC2)CC1 [CBK261923]	72.1917
O=c1[nH]c2ncc(-c3cccc(-c4ccccc4)c3)nc2n1Cc1ccccc1 [CBK064252]	109.956

Structure (SMILES)	% of control remaining
N#Cc1cccc(CN2CCCC3(CCN(C(=O)Cc4c[nH]c5ccccc45)C3)C2)c1 (centres unmarked) [CBK132032]	77.9795
C=CCNC1OC(CO)C(O)C(O)C1O (centres unmarked) [CBK261357]	117.292
NCc1cnc2c(c1)CCC2 [CBK018584G]	41.3956
Cc1ccc(-c2ccc(/C=C/c3cc(C(F)(F)F)nc(=O)[nH]3)o2)cc1Cl [CBK018169]	85.2766
CCOc1cc(/C=C2/NC(=O)N(c3ccccc3)C2=O)cc(Cl)c1OCc1cccc(C(=O)O)c1 [CBK265160]	113.713
CC1(C)[C@H](Cc2cc(COc3ccccc3)on2)C[C@@H]1NC1CCOCC1 [CBK289694]	89.3304
NS(=O)(=O)c1ccc(CCNC2=CC(=O)CC(c3ccco3)C2)cc1 (centres unmarked) [CBK265852]	120.008
O=C1NCCC[C@@H]1NC(=O)[C@H]1CN(C(=O)c2ccccc2)CCN1C(=O)c1cccnc1 [CBK289634]	119.644
CC(=O)Nc1ccc(CNC(=O)c2ccc(C(F)(F)F)cn2)cc1 [CBK252121]	39.8814
COc1ccc(S(=O)(=O)N(CC(=O)N2CCc3ccccc3C2)C2CCCCC2)cc1Cl [CBK268525]	97.3536
Cc1cccn2c(=O)cc(CN3CCC(c4cn[nH]c4)CC3)nc12 [CBK305764]	37.7556
COc1ccc2nc(Nc3nc(-c4cccnc4)cs3)sc2c1 [CBK287482]	83.9661
Cc1nonc1CC(=O)N1C2CCC1CC(c1ccc(F)cc1)C2 (centres unmarked) [CBK283739]	97.8758
Cc1ccn2cc(-c3cc4c(ccc5ccccc54)oc3=O)nc2c1 [CBK287313]	101.133
CC(=O)OC(COc1ccc2ccccc2c1Br)Cn1cnc2ccccc21 (centres unmarked) [CBK266083]	71.686
CCNC(=O)NCc1ccc(F)cc1 [CBK115581]	77.5611
Cc1cc(C(=O)CSc2nccc(C(F)(F)F)n2)c(C)n1C1CC1 [CBK305238]	42.2275
NC(=O)c1ccc2[nH]c(-c3cscn3)nc2c1 [CBK017800]	85.6988
COc1cccc(-c2nnc(NC(=O)c3ccc4c(c3)OCCO4)o2)c1 [CBK287591]	95.7222
CC(C)COc1ccc(C(CC(=O)O)C(=O)O)cc1 (centres unmarked) [CBK286759]	83.0056
CN(C)CCNc1cc(-c2ccc3ccccc3c2)nc2ccccc12 [CBK278186B]	4.361
Cc1cccc2c(=O)nc(-c3ccccc3Cl)oc12 [CBK152422]	72.2358
COc1ccc2[nH]cc(CCNC(=O)c3cccnc3)c2c1 [CBK122722]	119.273
CN1CCC(OC(=O)COc2ccc(Cl)cc2Cl)CC1 [CBK266389C]	93.0255
O=S1(=O)CCN(Cc2cn(-c3ccc(-c4ccccc4)cc3)nn2)CC1 [CBK113105]	103.92
CCNC(=O)/N=C(\N)Nc1nc2ccccc2s1 [CBK028890]	53.5463
CCOc1ccc(CN(C)C(=O)Nc2cc(C)on2)cc1 [CBK306216]	28.8307

Structure (SMILES)	% of control remaining
CSc1nc(O)c(C(c2cccc([N+](=O)[O-])c2)c2c(O)nc(SC)nc2O)c(O)n1 [CBK265370]	118.199
O=C(NCc1ccc(Cl)c(Cl)c1)N1CCN(c2cc(C(F)(F)F)ccn2)CC1 [CBK156434]	76.1729
COC(=O)c1c(NC(=S)Nc2ccc(Br)cn2)sc2c1CCC2 [CBK266862]	99.4651
N[C@H](CCc1nc2ccccc2[nH]1)C(=O)O [CBK172614]	113.336
CCN(CC)C(=O)C1CCCN(C(=O)NCCN2CCOCC2)C1 (centres unmarked) [CBK156128]	104.744
CCOc1cc(NC2CCN(C(=O)CC3CCCCC3)CC2)ncn1 [CBK305506]	86.3528
Nc1ncc(-c2ccc(C(F)(F)F)cc2)c(C2CCCN(C(=O)CN3CCCC3)C2)n1 (centres unmarked) [CBK285649]	116.801
COCCNc1nc(-c2cccc3ccccc23)cnc1N [CBK063574]	90.5185
COCCN1CCn2c(nc3cc(NC(=O)c4ccccc4)ccc32)C1 [CBK307410]	83.483
CC(NC(=O)C1(Cn2ccnc2)CC1)c1nc(-c2ccccn2)no1 (centres unmarked) [CBK307514]	55.5062
CN1C(=O)C2(N=C(N)NC(Nc3ccc(F)cc3)=N2)c2ccccc21 (centres unmarked) [CBK270285]	108.949
O=C(NNC(=O)c1ccc2c(c1)C(=O)N(Cc1ccco1)C2=O)c1cccnc1 [CBK267403]	94.0943
CC1(C)Cc2ccccc2C(NCCC(=O)O)=N1 [CBK023412]	92.3257
CNC(=O)c1ccc(-c2ccc(CNC(=O)C3(c4cccc(F)c4)CCCC3)cc2)nc1C [CBK286013]	101.737
Cc1oc(NC(=O)CN2CCN(c3ccccc3)CC2)c(C#N)c1C [CBK306044]	88.8946
O=C(NCCNCc1ccco1)c1ccc(F)cc1 [CBK266873G]	93.6563
Cc1ccccc1NC(=O)Cn1c(=O)n(CC(=O)Nc2ccccc2C)c2ccccc21 [CBK266938]	114.121
CN1C(CC(O)c2ccccc2)CCCC1C(=O)c1ccccc1 (centres unmarked) [CBK268467C]	77.4329
O=C1COc2ccccc2C/C=C/CC2(CCCNC2)CN1 (centres unmarked) [CBK292029]	108.886
CS(=O)(=O)N1CCC(C(=O)NNC(=S)Nc2cccc3ccccc23)CC1 [CBK266811]	76.938
Cc1ccc(S(=O)(=O)NCC(=O)N2CCN(c3ccc(Cl)cc3)CC2)cc1 [CBK091315]	103.492
CC(C)c1ccc(/C=C/C(=O)NCC2COc3ccccc3O2)cc1 (centres unmarked) [CBK149619]	75.3655
NC(=O)c1cccc(-c2cnc(N)c(NC3CCOCC3)n2)c1 [CBK063836]	112.59
O=C(Cn1ncc2cccn2c1=O)Nc1ccc(F)cc1 [CBK283672]	87.9824
COCCN1CCCC(NC(C)c2ccc(OC)c(F)c2)C1 (centres unmarked) [CBK305099]	108.962
COCCn1c(C)cc(C(=O)CSc2cc(C)c3ccccc3n2)c1C [CBK266437]	57.3152

From publication PMC12040169 (PLOS Biology, 2025)
